Experimental data taken from PubChem BioAssay AID1468 (National Center for Advancing Translational Sciences (NCATS), 2008).
The campaign covered roughly 280,000 compounds. About 1,100 (0.39%) were called active. Inconclusive means that the source gave no clear call. Such entries were picked first, then a sample of the others. The call rests on the fitted dose curve; in most records, active means well fitted inhibition curve with a large enough effect; inconclusive means small, poorly fitted or top-dose-only effect, or effect the other way; inactive means flat fitted curve, though single readings scatter. Potencies of inconclusive entries are left out as doubtful fits.

target: Microtubule-associated protein tau (Homo sapiens) (UniProt P10636); assay: qHTS for Inhibitors of Tau Fibril Formation, Fluorescence Polarization; conditions: K18 P301L tau heparin fibrillization, Alexa594 FP, 6 h; series mostly up to 57.7 µM; further: nearly all actives have a fitted effect of over 55% in size
UniProt P10636, sequence (P10636 whole entry, looked up, the tested form may be a part): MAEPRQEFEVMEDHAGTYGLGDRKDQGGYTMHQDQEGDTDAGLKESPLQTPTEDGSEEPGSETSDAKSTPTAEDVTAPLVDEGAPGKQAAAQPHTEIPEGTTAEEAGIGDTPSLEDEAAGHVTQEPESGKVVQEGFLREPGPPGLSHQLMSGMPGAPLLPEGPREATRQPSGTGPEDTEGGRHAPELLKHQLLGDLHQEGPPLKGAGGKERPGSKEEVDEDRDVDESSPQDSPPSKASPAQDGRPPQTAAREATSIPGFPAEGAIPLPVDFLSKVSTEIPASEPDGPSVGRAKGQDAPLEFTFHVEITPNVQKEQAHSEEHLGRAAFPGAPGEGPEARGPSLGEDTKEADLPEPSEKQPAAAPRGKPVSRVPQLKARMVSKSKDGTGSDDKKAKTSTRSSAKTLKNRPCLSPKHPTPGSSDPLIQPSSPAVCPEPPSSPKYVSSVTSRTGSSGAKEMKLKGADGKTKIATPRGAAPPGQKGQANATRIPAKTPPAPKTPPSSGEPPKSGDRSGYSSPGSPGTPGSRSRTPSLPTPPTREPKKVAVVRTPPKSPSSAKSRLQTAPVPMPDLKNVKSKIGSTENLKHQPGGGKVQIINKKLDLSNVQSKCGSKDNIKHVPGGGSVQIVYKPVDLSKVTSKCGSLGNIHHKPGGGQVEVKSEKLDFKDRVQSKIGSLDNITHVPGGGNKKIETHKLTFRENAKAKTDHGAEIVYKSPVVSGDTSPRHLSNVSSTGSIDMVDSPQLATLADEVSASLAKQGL
Summary of the method: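 Human tau K18 […] P301L fragment, 15 uM unlabeled plus 0.24 uM Alexa 594-labeled tau (final), with compound and 20 uM heparin in 100 mM sodium acetate pH 7; 6 hr at 37 C, then Alexa 594 FP read.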
Potency means the concentration at half of the fitted maximal effect; tags describe the fitted curve by direction and shape.

SMILES	Potency
O=C(NC1CC1)C1=C[C@@H](c2ccc(Br)cc2)C[C@@H](OCc2ccc(CO)cc2)O1	inactive
COc1ccc(-c2cc(C(=O)Oc3ccc(Cl)cc3)c3ccccc3n2)cc1	inconclusive [inhibitor, single point]
CN(C1CCCCC1)S(=O)(=O)c1ccc(NC(=S)NC(=O)c2cccs2)cc1	inconclusive [inhibitor, partial curve, poor fit]
CN(/C(=N\S(=O)(=O)c1ccccc1)C(F)(F)F)c1ccccc1	inactive
C=Cc1ccc2c(c1)N(C)C(=C)S2	inconclusive [inhibitor, single point]
Cc1ccccc1NS(=O)(=O)c1cc(C(=O)Nc2cccc([N+](=O)[O-])c2)ccc1C	inactive
CC(C)Cn1nnnc1S(=O)(=O)Cc1ccccc1	inconclusive [inhibitor, full curve, poor fit]
Cc1ccc(NC(=O)Cc2n[nH]c(=S)n2C)cc1	inconclusive [inhibitor, single point]
Cc1ccc(-n2ncc3c(Nc4ccc5c(c4)OCCO5)ncnc32)cc1C	inconclusive [activator, partial curve]
Cn1cc(Cl)c(-c2n[nH]c(=S)n2-c2ccccc2)n1	inactive
CCOc1ccccc1C(=O)N1CCc2cc(OC)c(OC)cc2C1COc1ccc2c(C)cc(=O)oc2c1 (configuration not stated)	inactive
CSC1=C(C#N)C(c2ccccc2Cl)C2=C(N1)c1ccccc1C2=O (configuration not stated)	inconclusive [inhibitor, single point]
COc1ccc(-c2nc(SCC(=O)NC3CCCC3)c(-c3ccccc3)[nH]2)cc1OC	inconclusive [activator, full curve]
CCOC(=O)N1CCN(C(=O)c2c(N)no[n+]2[O-])CC1	inconclusive [inhibitor, partial curve]
O=c1sc2ccccc2n1COc1ccc(Cl)cc1	inconclusive [inhibitor, single point]
CC(C)CCC(C(=O)O)C(C)CC(=O)NNC(=O)c1ccco1 (configuration not stated)	inactive
CCCCN(CCCC)S(=O)(=O)c1ccc(NC(=O)c2c(-c3ccccc3)noc2C)cc1	inconclusive [inhibitor, partial curve]
Cc1cccc(OCC(=O)N/N=C/c2cn[nH]c2-c2ccc(Cl)c(Cl)c2)c1	inconclusive [inhibitor, partial curve]
S=C(Nc1cccc(Cl)c1)Nc1ccccc1Oc1ccccc1	inconclusive [inhibitor, partial curve, poor fit]
C=Cc1ccc(CSc2nc(-c3ccc(Cl)cc3)nc3c2Cc2c(CO)cnc(C)c2O3)cc1	inactive
Cc1cc(C)cc(OCCOCCn2c(-c3ccc(Cl)cc3)nc3ccccc3c2=O)c1	inconclusive [inhibitor, partial curve, poor fit]
CN(C)c1nc(N/N=C/c2ccccc2O)nc(Nc2ccc(F)cc2)n1	inconclusive [inhibitor, partial curve, poor fit]
COc1ccc(-c2cc(C(F)(F)F)nc(NCc3ccccc3)n2)cc1OC	inconclusive [inhibitor, partial curve]

SMILES	Potency
COc1cccc(CN2c3ccccc3-c3nc(SCC(=O)Nc4cccc(C)c4)ncc3S2(=O)=O)c1	inconclusive [inhibitor, partial curve]
Cc1cc(Nc2cccc(F)c2)nc(NCc2ccccc2)n1	inconclusive [inhibitor, single point]
COc1ccc(C(=O)/C=C/N(C)C)cc1OC	inconclusive [inhibitor, single point]
CC1CCc2c(sc3nnn(CC(=O)Nc4cccc(C(F)(F)F)c4)c(=O)c23)C1 (configuration not stated)	inconclusive [inhibitor, partial curve]
Cc1nc(N)sc1-c1csc(N(C)c2ccc(O)cc2)n1	inconclusive [inhibitor, single point]
O=C(CSc1nnc(-c2ccccc2Cl)o1)N1CCCCC1	inactive
O=C(NC(c1ccccc1)c1ccccc1)c1ccc(Br)o1	inactive
CCCCCc1c(C)nc(Nc2ccc(F)cc2)[nH]c1=O	inconclusive [inhibitor, single point]
CCOc1cccc(NC(=O)CSc2ncc(-c3ccc(Cl)cc3)[nH]2)c1	inconclusive [inhibitor, single point]
Cc1cccc(C(=O)Nc2nc3c(s2)CCCC3)c1	inactive
COc1ccc(-c2nc(CCNC(=O)Cc3ccc(F)cc3)cs2)cc1	inactive
Nc1ccc(C(=O)NCC(=O)O)cc1	inconclusive [inhibitor, partial curve]
N#C/C(=C(\O)c1ccco1)c1ccccn1	inactive
C/C(=N\NC(=O)CNc1cccc(C(F)(F)F)c1)c1cccc(Br)c1	inconclusive [inhibitor, partial curve, poor fit]
Cc1ccccc1C(=O)OC1OC(=O)C(Cl)=C1N1CCOCC1 (configuration not stated)	inactive
COc1ccc(/C=N/NC(=O)c2ccoc2C)cc1COc1c(C)cccc1C	inconclusive [inhibitor, single point]
Cc1cc(C)c(S(=O)(=O)c2ccccc2C)c(N(C)C)n1	inconclusive [inhibitor, single point]
O=C(Nc1ccc(F)cc1)N1CCCC(c2nc3c(nnn3Cc3ccccc3Cl)c(=O)[nH]2)C1 (configuration not stated)	inconclusive [inhibitor, partial curve, poor fit]
O=C(OCc1ccc(F)cc1)c1ccc2c(c1)-c1ccccc1C2=O	inactive
O=C(Nc1nnc(SCc2ccc(F)cc2)s1)C1CC(=O)N(Cc2ccccc2)C1 (configuration not stated)	inactive
Cc1cc(=O)nc2c3ccccc3n(C(C)C(=O)Nc3c(F)c(F)c(F)c(F)c3F)n12 (configuration not stated)	inconclusive [inhibitor, single point]
COc1ccccc1C(=O)Nc1ccc(-c2nc3cc(C)cc(C)c3o2)cc1	inconclusive [inhibitor, partial curve, poor fit]
Cc1cc2ncc(-c3ncc(C(F)(F)F)cc3Cl)cn2n1	inactive

SMILES	Potency
Cc1ccc(NC(=O)CSc2nc3ccc(NC(=O)c4cccc(Cl)c4)cc3s2)c(C)c1	inconclusive [inhibitor, partial curve]
CCOC(=O)c1ccc(N2C(=O)c3n[nH]c(-c4ccco4)c3C2c2cccc(F)c2)cc1 (configuration not stated)	inconclusive [inhibitor, partial curve]
COc1ccc(CCNc2nc(-c3sc(N)nc3C)cs2)cc1OC	inconclusive [inhibitor, single point]
CCOc1ccc(N2CSC3=C(C#N)C(c4ccco4)CC(=O)N3C2)cc1 (configuration not stated)	inconclusive [inhibitor, partial curve]
COc1ccc(-n2c(SCC(=O)Nc3ccccc3)nnc2-c2ccc(NS(=O)(=O)c3ccc(C)cc3)cc2)cc1	inconclusive [inhibitor, partial curve]
CCOc1ccccc1NC(=O)Cn1c(=O)n(Cc2ccco2)c(=O)c2cccnc21	inconclusive [inhibitor, single point]
O=S1(=O)c2ccccc2N=NN1Cc1ccc(Cl)cc1	inactive
COC(=O)CCC(=O)OC1(C)C(=O)C2=CN(CC3CC3)C(c3ccc(OC)cc3)=CC2=C(Br)C1=O (configuration not stated)	inconclusive [inhibitor, partial curve]
CC(=O)c1c(C)nc(C)nc1NC(=O)C(C)C	inconclusive [inhibitor, single point]
CCC(=O)N1CCc2cc(S(=O)(=O)NC(Cc3ccccc3)C(=O)Nc3ccc(Cl)cc3)ccc21 (configuration not stated)	inconclusive [inhibitor, single point]
Oc1ccc(/C=N/Nc2nc(-c3cccnc3)nc3ccccc23)c(O)c1	inconclusive [activator, single point]
O=C(CCN1CCN(C(c2ccccc2)c2ccccc2)CC1)N/N=C/c1ccc(O)cc1	inactive
Cc1cccc(C(=O)NCc2nnc(SCC(=O)Nc3ccccc3F)n2-c2ccccc2)c1	inactive
O=S1(=O)C=C(Sc2nc3cc(Cl)ccc3o2)c2ccccc21	active: 25.1 µM
COc1ccc(NC(=O)CSc2nc(-c3ccccc3)c3ccccc3n2)cc1	inconclusive [inhibitor, partial curve]
CCOc1ccc(-c2n[nH]c3c2C(c2cccs2)N(c2ccc(Br)cc2)C3=O)cc1 (configuration not stated)	inconclusive [inhibitor, partial curve, poor fit]
O=C(Nc1cccc(S(=O)(=O)N2CCCCCC2)c1)c1cc(=O)c2ccccc2o1	inconclusive [inhibitor, partial curve, poor fit]
Cc1ccc(C2/C(=C(/O)c3cnn(-c4ccccc4)c3C)C(=O)C(=O)N2CCCN2CCOCC2)o1 (configuration not stated)	inconclusive [inhibitor, single point]
Cc1ccccc1NC(=O)CN1C(=O)C2C3CC(C(Br)C3Br)C2C1=O (configuration not stated)	inconclusive [inhibitor, single point]
CCCCC(=O)Nc1cc(C)c(NC(=O)c2cccs2)cn1	inconclusive [inhibitor, single point]
O=C1C2=C(S[C@@H]3O[C@H](CO)[C@@H](O)[C@H](O)[C@H]3O2)C(=O)c2ccccc21	inconclusive [inhibitor, partial curve]
